In PubChem BioAssay AID504832 (National Center for Advancing Translational Sciences (NCATS), 2011):
Out of some 310,000 compounds screened, about 18,000 (5.8%) were called active. The shares of active, inactive and inconclusive entries below differ from those in the screen. Calls come from the whole dose curve; as a rule, active = well fitted inhibition curve with a large enough effect; inconclusive = small, poorly fitted or top-dose-only effect, or another doubt; inactive = no such curve, though single readings can be large or run the other way. Potencies of inconclusive entries are left out as doubtful fits.
% is set by controls: 0 for no effect and ±100 for the full control effect; potency is the fitted concentration of half-maximal effect; tags give direction and shape of the fitted curve.

Experiment: Primary qHTS for delayed death inhibitors of the malarial parasite plastid, 48 hour incubation
Conditions: P. falciparum luciferase growth in erythrocytes; series mostly up to 28.7 µM
In short: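 Parasite viability was followed by luminescence of a genomically integrated firefly luciferase. Cultures held 0.1% parasitemia at 2% hematocrit (final), incubated under 5% CO2 at 37 C.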
For `O=C(NCCS(=O)(=O)N1CCN(c2ccccc2F)CC1)c1ccc2c(c1)OCO2`, the Potency was “inactive”. For `CCN(CC)S(=O)(=O)c1ccc2c(c1)N(CC(=O)Nc1ccc(NC(C)=O)cc1)C(=O)CO2`, the Potency was “inactive”. In the case of `CN(C)CC(CCCCC(CN(C)C)C(=O)c1ccccc1)C(=O)c1ccccc1` (stereo not given), the Potency is reported as inconclusive [inhibitor, single point]. With `COC(=O)c1cccc(N(C(=O)c2ccco2)C(C(=O)NC2CCCC2)c2ccco2)c1` (stereo not given) the Potency was inconclusive [inhibitor, single point]. In the case of `COCCNC(=O)c1onc(CSc2ccc(C(C)C)cc2)c1C(=O)O`, the Potency is reported as “inactive”. With `CCc1ccc(C(O)(CC)C(CN2CCOCC2)c2ccccc2)cc1` (stereo not given) the Potency was active: 11.7 µM. With `Cc1c2cccn2cc[n+]1C` the Potency was inconclusive [inhibitor, single point]. With `O=C(O)c1ccccc1OCc1ccccc1Br` the Potency was “inactive”. With `CCCN(CC(=O)Nc1ccccc1OC)C(=O)Cc1ccc2c(c1)CCC2` the Potency was active: 10.4 µM. With `CCOC(=O)[C@@H]1[C@H]2COc3cc(OC)ccc3[C@H]2N2C(=O)N(c3cccc(Cl)c3)C(=O)[C@@]12C` the Potency was active: 10.4 µM. In the case of `CN(c1ccc(C(=O)N2CCOCC2)cc1)S(C)(=O)=O`, the Potency is reported as “inactive”. For `CCc1cc2c(=O)n(CCCOC)c(SCC(=O)Nc3oc(C)c4c(C)n[nH]c(=O)c34)nc2s1`, the Potency was inconclusive [inhibitor, single point]. For `CCOc1nc(-c2ccncc2)nc2ccccc12`, the Potency was inconclusive [inhibitor, single point]. With `COc1ccc(C2CC(c3cccs3)=NN2C(=O)COC(=O)c2cc3ccccc3cc2O)cc1OC` (stereo not given) the Potency was inconclusive [inhibitor, partial curve]. For `CCCn1c(N)c(N(CCOC)C(=O)C(C)Oc2ccc(F)cc2)c(=O)[nH]c1=O` (stereo not given), the Potency was inconclusive [inhibitor, partial curve, poor fit]. In the case of `CCSc1nnc(NC(=O)c2cc(-c3ccccc3O)n[nH]2)s1`, the Potency is reported as inconclusive [inhibitor, partial curve]. With `Cc1cc(C)cc(NS(=O)(=O)c2ccc3[nH]cc(C(=O)NCc4ccco4)c(=O)c3c2)c1` the Potency was inconclusive [inhibitor, single point]. With `Cc1ccnc(NC(=O)c2cc3ccccc3o2)c1` the Potency was inconclusive [inhibitor, partial curve, poor fit]. For `Cn1c(N)c(C(=O)CSc2nnc(Cc3cccs3)n2C2CC2)c(=O)n(C)c1=O`, the Potency was active: 5.22 µM. For `COc1cccc(C(=O)NC2CC3CCCC(C2)N3Cc2ccc(C)cc2)c1` (stereo not given), the Potency was inconclusive [inhibitor, single point]. For `CCOC(=O)c1nn(-c2ccc(OCC)cc2)c2nc(-c3ccco3)c(C#N)c(=O)n12`, the Potency was active: 11.7 µM. With `Cn1c(=O)c(C(=O)COC(=O)c2cc(C3CC3)nc3ccccc23)c(N)n(Cc2ccccc2)c1=O` the Potency was inconclusive [inhibitor, partial curve]. For `CCOC(=O)C1=C(C)N=C2SC(C(=O)OC)=CC(=O)N2C1c1ccc(OC)cc1` (stereo not given), the Potency was inconclusive [inhibitor, partial curve, poor fit]. In the case of `Cc1ccc(-c2cc(C(=O)Nc3cc(C)on3)c3ccccc3n2)c(C)c1`, the Potency is reported as inconclusive [inhibitor, single point]. In the case of `Cc1nc2ccc(C(=O)N(C)CC3CCCN(CCc4ccc(Cl)cc4)C3)cc2[nH]1` (stereo not given), the Potency is reported as inconclusive [inhibitor, full curve, poor fit]. For `CCC(C)n1c(SCc2ccc([N+](=O)[O-])cc2)nc2ccsc2c1=O` (stereo not given), the Potency was inconclusive [inhibitor, single point]. For `Cc1ccc(C(C)NC(=S)NCc2ccc(F)cc2)c(C)c1` (stereo not given), the Potency was inconclusive [inhibitor, partial curve, poor fit]. With `O=C(N/N=C\c1cccnc1)c1ccc(Cl)cc1Cl` the Potency was “inactive”. In the case of `COc1cccc(NC(=O)CN(C)CC(=O)Nc2ccc(Cl)cc2[N+](=O)[O-])c1`, the Potency is reported as inconclusive [inhibitor, full curve, poor fit]. For `O=[N+]([O-])c1nn(-c2ccc3c(c2)OCCO3)n(O)c1=NCCCO`, the Potency was “inactive”. With `O=C(NC1C/C(=N/O)c2cc3c(cc21)OCO3)C(F)(F)F` (stereo not given) the Potency was “inactive”. For `CCOC(=O)c1c(C)nc2c(c1-c1ccccc1)C(=O)CCC2`, the Potency was inconclusive [inhibitor, single point]. With `Cc1cc(NC(=O)c2cc(-c3ccccc3)on2)no1` the Potency was “inactive”. For `O=C(NCC1CCCN1S(=O)(=O)c1cccs1)c1cccc(F)c1` (stereo not given), the Potency was inconclusive [inhibitor, single point]. With `Cc1ccc(Sc2cc(C(=O)NCCCN(C)C)c3ccccc3n2)cc1` the activity change, negative = inhibition was inactive: -7.48% [at 0.00184 µM]. With `CN(CC(=O)Nc1cccc(F)c1)C(=O)COc1cccc2c1OC(C)(C)C2` the Potency was inconclusive [inhibitor, partial curve, poor fit]. With `O=C(OCc1nnc(-c2ccccc2)o1)C1CC(=O)N(Cc2ccco2)C1` (stereo not given) the Potency was “inactive”. For `CCO[C@@H]1OC(C(=O)N2CCN(C)CC2)=C[C@H](c2csc3ccccc23)[C@H]1CCCO`, the Potency was inconclusive [inhibitor, single point]. With `O=C(Nc1cccc(O)c1)c1cccc(NC(=O)c2cccs2)c1` the Potency was inconclusive [inhibitor, partial curve, poor fit]. In the case of `COc1cc(NC(=O)CN(c2ccc(C)cc2)S(=O)(=O)c2c(C)noc2C)cc(OC)c1`, the Potency is reported as inconclusive [inhibitor, single point]. In the case of `C/C(=N/NC(=O)CNC(=O)Cc1ccc(Cl)cc1)c1ccco1`, the Potency is reported as “inactive”. In the case of `O=C(CCc1ccccc1)Nc1ccccc1[N+](=O)[O-]`, the Potency is reported as “inactive”. With `Cc1c(Cl)cccc1NC(=O)CCC(=O)c1cccs1` the Potency was “inactive”. In the case of `CCN(CC)c1ccc(NC(=O)COC(=O)C2CCN(c3ccc(C(F)(F)F)cn3)CC2)cc1`, the Potency is reported as “inactive”. With `Cc1cc(C)c(S(=O)(=O)N2CCN(C(=O)N3CCOCC3)CC2)c(C)c1` the Potency was inconclusive [inhibitor, single point].
